Data reported in paper PMC4336329 (PLoS ONE, 2015).
Among all 310,000 compounds or so, about 2,200 (0.71%) showed an effect of 50% or more. Effects have a minus sign here. Some of the results follow.

Molecular target: human ether-à-go-go-related gene (hERG) potassium channel (human, UniProt Q12809)
Assay: primary screen, population patch clamp on CHO cells stably expressing hERG

human ether-à-go-go-related gene (hERG) potassium channel, sequence (Q12809 whole entry, looked up): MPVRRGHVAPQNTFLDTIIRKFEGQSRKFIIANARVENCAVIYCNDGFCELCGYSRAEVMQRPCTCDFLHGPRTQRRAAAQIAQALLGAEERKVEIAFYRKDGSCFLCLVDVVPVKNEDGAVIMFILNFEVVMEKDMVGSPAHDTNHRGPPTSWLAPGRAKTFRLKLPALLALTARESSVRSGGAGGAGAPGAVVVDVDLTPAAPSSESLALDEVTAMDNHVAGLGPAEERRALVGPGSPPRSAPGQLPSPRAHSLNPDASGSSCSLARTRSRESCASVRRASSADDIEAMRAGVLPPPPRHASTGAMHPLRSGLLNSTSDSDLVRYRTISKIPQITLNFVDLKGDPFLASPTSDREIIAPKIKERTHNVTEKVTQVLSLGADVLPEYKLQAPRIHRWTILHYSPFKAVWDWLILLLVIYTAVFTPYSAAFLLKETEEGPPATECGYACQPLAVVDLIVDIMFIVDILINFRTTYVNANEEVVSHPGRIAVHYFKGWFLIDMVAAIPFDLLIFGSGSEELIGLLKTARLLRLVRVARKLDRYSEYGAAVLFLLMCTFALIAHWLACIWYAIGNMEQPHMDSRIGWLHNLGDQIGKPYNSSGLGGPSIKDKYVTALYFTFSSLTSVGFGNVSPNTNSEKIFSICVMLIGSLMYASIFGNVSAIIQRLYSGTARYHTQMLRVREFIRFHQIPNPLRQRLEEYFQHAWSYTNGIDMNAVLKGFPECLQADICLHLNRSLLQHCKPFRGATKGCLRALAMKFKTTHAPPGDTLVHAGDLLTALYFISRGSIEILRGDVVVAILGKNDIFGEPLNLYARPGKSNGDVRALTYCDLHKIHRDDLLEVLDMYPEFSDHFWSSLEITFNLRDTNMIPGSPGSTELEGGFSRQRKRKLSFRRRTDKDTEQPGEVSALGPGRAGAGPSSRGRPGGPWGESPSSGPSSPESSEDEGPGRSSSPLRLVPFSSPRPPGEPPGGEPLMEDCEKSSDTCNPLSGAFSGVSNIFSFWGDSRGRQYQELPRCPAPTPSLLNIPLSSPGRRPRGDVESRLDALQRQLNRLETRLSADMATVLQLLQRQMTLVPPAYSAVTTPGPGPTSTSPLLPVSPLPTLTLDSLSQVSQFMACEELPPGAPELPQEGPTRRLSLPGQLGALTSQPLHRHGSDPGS

Row | Structure (SMILES) | hERG current change (%, negative = inhibition) at 1uM
1 | O=C(NCc1ccncc1)Nc1cccc([N+](=O)[O-])c1 | 6.24%
2 | O=C(Nc1ccccn1)Nc1ccccc1Cl | 19.1%
3 | Cc1cc(-c2nnc(SCC(=O)Nc3ccccc3)n2C)no1 | 11.9%
4 | C=CC[n+]1c(-c2ccc(Cl)cc2Cl)csc1Nc1ccc(NC(C)=O)cc1.[Cl-] | 8.45%
5 | CC(C)(C)C(=O)N1N=C(c2ccc(NS(C)(=O)=O)cc2)CC1c1cccs1 (stereo not drawn) | -4.1%
6 | FC(F)(F)c1cccc(N/N=C/c2ccccc2)c1 | 12%
7 | CC(C)(C)NC(=O)COC(=O)c1ccc(Cl)cc1O | 7.18%
8 | O=C(N/N=C/c1cccs1)c1cccnc1 | 8.96%
9 | Cc1ccc2nc(N3CCN(C(=O)CCC(=O)O)CC3)nc(-c3ccccc3)c2c1 | 9.46%
10 | CCn1ncc(NC(=S)Nc2ccc(OC)c(OC)c2)c1C(N)=O | 22.5%
11 | CCC/C(=N/NC(=O)c1ccccc1Cl)c1ccccc1 | -3.22%
12 | CC(=O)c1cccc(NC(=O)CN2C(=O)NC(C)(c3ccc4c(c3)OCCCO4)C2=O)c1 (stereo not drawn) | 12.1%
13 | O=C(CN1CCN(c2ccccn2)CC1)Nc1ccc(F)cc1F | 2.38%
14 | COc1cc(OC)cc(C(=O)Nc2ccccc2C(=O)N2CCCC2)c1 | 1.26%
15 | CN(C)/C=C/C(=O)c1ccn(S(=O)(=O)c2ccccc2)c1 | 10.1%
16 | CCOC(=O)CSC1=C(C#N)C(c2ccc(F)cc2)C(C(C)=O)=C(C)N1 (stereo not drawn) | 9.13%
17 | Cc1ccccc1-n1c(C)nnc1SCc1nc2ccccc2s1 | 5.99%
18 | CC(=O)c1c[nH]c(C(=O)NCc2cccc(C(F)(F)F)c2)c1 | 18.7%
19 | Cc1ccc(NC(=O)c2c(C)noc2-c2snnc2C)cc1 | 8.36%

Row | Structure (SMILES) | hERG current change (%, negative = inhibition) at 1uM
20 | NC(=O)C1(N2CCCCC2)CCN(c2nc(-c3ccccc3)cs2)CC1 | -2.02%
21 | Cc1ccc(-c2nn(-c3ccccc3)cc2/C=N/n2c(-c3ccncc3)n[nH]c2=S)cc1 | 7.72%
22 | O=C(N/N=C/c1ccco1)c1cc(=O)[nH]c2ccccc12 | 10%
23 | CCc1nc2ccc(C(=O)NCc3ccco3)cc2nc1CC | -0.767%
24 | O=C(Cn1c(=O)sc2ccccc21)Nc1nc2c(s1)CCCC2 | 6.76%
25 | Cc1ccc(C23CC4CC(CC(C(=O)N5CCN(C)CC5)(C4)C2)C3)cc1 | -5.67%
26 | O=C(O)c1ccc(COc2ccccc2Cl)cc1 | 14.8%
27 | CCC(=O)Nc1ccc(C(=O)NNC(=O)c2ccc([N+](=O)[O-])cc2)cc1 | 10.4%
28 | O=C(Nc1ccc(Cl)cn1)c1ccccc1SCc1ccccc1 | 13.3%
29 | COc1ccc(C(=O)N(C)Cc2ccccn2)cc1OC1CCN(C(C)C)CC1 | 9.67%
30 | CCCN1C(=O)c2cc(C(=O)Nc3ccc(OC)cc3OC)ccc2C1Nc1ccc(OC)cc1OC (stereo not drawn) | 9.85%
31 | O=C(O)CNC(=O)CCN1C(=O)c2ccccc2C1=O | -15.6%
32 | CCCN(CCC)CCNC(=O)CN1C(=O)COc2ccc(S(=O)(=O)N3CCOCC3)cc21 | 15%
33 | Cn1c(=O)c2c(nc(SCC(=O)NC3CCCC3)n2C)n(C)c1=O | 10.1%
34 | O=C1NC(c2ccccc2Cl)Nc2ccccc21 (stereo not drawn) | 4.54%
35 | COc1ccccc1C1CC(c2ccc(Br)cc2)=NN1C(=O)c1cccnc1 (stereo not drawn) | 2.17%
36 | COC(=O)c1ccc(CNC(=O)C2CCC(=O)N(C3CCCCCC3)C2)cc1 (stereo not drawn) | 6.11%
37 | Cn1cnnc1SCCC(=O)Nc1ccccc1 | 5.3%
38 | CC(C)N(Cc1ccccc1)C(=O)C1CCN(c2ncnc3c2nc2n3CCCCC2)CC1 | 13.1%

Row | Structure (SMILES) | hERG current change (%, negative = inhibition) at 1uM
39 | CC(C)(C)n1nnnc1C(c1ccccn1)N1CCN(C(c2ccccc2)c2ccccc2)CC1 (stereo not drawn) | 17.7%
40 | Nc1nc(SCc2ccccc2Cl)nc2nc3c(cc12)CCCC3 | -4.29%
41 | CCOC(=O)c1cnc2c(C)c(Cl)ccc2c1NCCCN1CCOCC1 | 11.4%
42 | Cc1ccc2[nH]c(=O)c3cc(C(=O)NCCC(C)C)sc3c2c1 | 14.6%
43 | Cn1cnnc1SCC(=O)Nc1ccc(OCc2ccccc2)cc1 | 14.1%
44 | Cc1cc(C(=O)Nc2ncn[nH]2)ccc1[N+](=O)[O-] | 25.4%
45 | CCOc1ccc(NS(=O)(=O)c2ccc(C(=O)NCC(c3ccc(OC)cc3)N3CCCC3)cc2)cc1 (stereo not drawn) | -6.72%
46 | COc1ccc2c(=O)cc(C(F)(F)C(F)(F)F)oc2c1 | 14.3%
47 | Cc1cc(C)cc(NC(=O)c2ccc(NC(=O)c3ccco3)cc2)c1 | 16.9%
48 | CCc1ccc(N(CC(=O)NCC2CCCO2)C(=O)CCC(=O)Nc2nccs2)cc1 (stereo not drawn) | 11.8%
49 | O=C(CN1C(=O)NC2(CCCC2)C1=O)N1CCN(S(=O)(=O)c2ccc(Cl)cc2)CC1 | 6.41%
50 | Cc1c(Cl)c([N+](=O)[O-])nn1CCCC(=O)Nc1cccc(Cl)c1Cl | -7.86%
51 | Cc1ccc2nc(SCC(=O)NC3CC3)[nH]c2c1 | 14.6%
52 | COc1cccc(Oc2ccc(N)cc2)c1 | 3.51%
53 | CCC(=O)OCCNc1cc(Sc2nccn2C)c2nonc2c1[N+](=O)[O-] | 2.01%
54 | Cc1ccccc1NC(=O)Cc1nc(COC(=O)COc2ccc(C(C)(C)C)cc2)cs1 | 1.62%
55 | CCOC(=O)COc1ccc2c3c(c(=O)oc2c1)CCCC3 | 14.4%
56 | Cc1cccc(OCCNc2nc3c(c(=O)n(C)c(=O)n3C)n2C)c1 | 10.4%
57 | C=CCNc1nc(Cl)nc(Nc2ccc(OC)cc2OC)n1 | 13.8%
